The campaign covered roughly 39,000 compounds. About 220 (0.56%) showed activity. This is one part of the list.
These compounds were tested on Escherichia coli K-12 BW25113 (assay: relative growth (OD600 normalised to plate interquartile mean) (fraction); higher = less growth inhibition, active = 0.2 or less). Conditions: 50 µM; LB; incubation time: overnight (16-24 h).
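Also: static incubation at 37 °C against the wild-type strain, values averaged over two biological replicates.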

Row | SMILES | relative growth
1 | C[C@H](CO)N1C[C@H](C)[C@@H](CN(C)Cc2ccc3c(c2)OCO3)Oc2ccc(NC(=O)c3ccncc3)cc2C1=O | inactive: 0.956
2 | C[C@@H]1CN([C@H](C)CO)C(=O)Cc2cc(NC(=O)C3CCCCC3)ccc2O[C@@H]1CN(C)S(=O)(=O)c1cn(C)cn1 | inactive: 0.995
3 | COc1ccnc(CS(=O)c2nc3cc(OC(F)F)ccc3[nH]2)c1OC (stereo unspecified) | inactive: 1.04
4 | C[C@H]1CN([C@@H](C)CO)C(=O)c2cccc(NS(C)(=O)=O)c2O[C@H]1CN(C)S(=O)(=O)c1ccc(F)cc1 | inactive: 1.01
5 | C[C@H](CO)N1C[C@H](C)[C@@H](CN(C)Cc2ccc(Cl)c(Cl)c2)Oc2c(NC(=O)c3ccc(-c4nccs4)cc3)cccc2C1=O | inactive: 1.02
6 | COc1ccc(NC(=O)N(C)C[C@H]2OCCCC[C@H](C)Oc3ccc(NS(=O)(=O)c4ccc(Cl)cc4)cc3C(=O)N([C@H](C)CO)C[C@@H]2C)cc1 | inactive: 1.01
7 | COc1ccc(S(=O)(=O)N(C)C[C@H]2Oc3ccc(NS(=O)(=O)c4ccccc4)cc3C(=O)N([C@@H](C)CO)C[C@@H]2C)cc1 | inactive: 1.01
8 | C[C@@H]1CN([C@H](C)CO)C(=O)c2cc(NC(=O)Cc3ccccc3)ccc2O[C@H]1CN(C)Cc1ccc(C(F)(F)F)cc1 | inactive: 1.04
9 | N=C(N)NCCSC(=N)N | inactive: 0.998
10 | Cc1ccc(S(=O)(=O)N2C[C@@H](O)COC[C@H]3O[C@H](CC(=O)NCc4ccc(F)c(F)c4)CC[C@@H]32)cc1 | inactive: 0.99
11 | Cc1cc(C(=O)Nc2cccc3c2O[C@H](CN(C)C(=O)Nc2c(C)noc2C)[C@H](C)CN([C@H](C)CO)C3=O)n(C)n1 | inactive: 0.941
12 | CN(C)CC(=O)N[C@H]1CC[C@@H](CC(=O)O)O[C@H]1CO | inactive: 1.01
13 | C[C@H]1CCCCO[C@H](CN(C)S(=O)(=O)c2ccc(Cl)cc2)[C@@H](C)CN([C@@H](C)CO)C(=O)c2cc(NC(=O)C3CCCCC3)ccc2O1 | inactive: 1
14 | C[C@@H]1CN([C@H](C)CO)C(=O)c2cccc(NC(=O)Nc3cccc4ccccc34)c2O[C@@H]1CN(C)C(=O)Nc1ccc(F)cc1 | inactive: 1.01
15 | O=C(C[C@@H]1CC[C@@H]2[C@H](COC[C@@H](O)CN2C(=O)Nc2cccc(Cl)c2)O1)NCc1ccccc1F | inactive: 0.813
16 | CC1(C)CC[C@]2(C(=O)O[C@@H]3O[C@H](CO[C@@H]4O[C@H](CO)[C@@H](O)[C@H](O)[C@H]4O)[C@@H](O)[C@H](O)[C@H]3O)CC[C@]3(C)C(=CC[C@H]4[C@@]5(C)CC[C@H](O[C@@H]6OC[C@H](O)[C@H](O)[C@H]6O)C(C)(C)[C@@H]5CC[C@]43C)[C@@H]2C1 | inactive: 1.01
17 | C[C@H](CO)N1C[C@H](C)[C@H](CN(C)S(=O)(=O)c2ccc(C#N)cc2)Oc2ncc(C#CC(C)(C)O)cc2C1=O | inactive: 0.994
18 | O=C(/C=N/O)NCc1ccccn1 | inactive: 1

Row | SMILES | relative growth
19 | Cc1ccc(S(=O)(=O)Nc2cccc3c2O[C@H](CN(C)Cc2ccc(C(F)(F)F)cc2)[C@@H](C)CN([C@H](C)CO)C3=O)cc1 | inactive: 1
20 | C[C@@H]1CCCCO[C@@H](CN(C)C(=O)Nc2ccccc2)[C@H](C)CN([C@@H](C)CO)C(=O)c2cc(NC(=O)Nc3ccc(C(F)(F)F)cc3)ccc2O1 | inactive: 1.04
21 | C[C@@H]1CCCCO[C@@H](CN(C)S(=O)(=O)c2cccs2)[C@H](C)CN([C@@H](C)CO)C(=O)c2cc(NC(=O)Nc3ccc(F)cc3)ccc2O1 | inactive: 1.04
22 | CC(=O)O[C@@H]1[C@@H](O[C@@H]2O[C@H](CO)[C@@H](O)[C@H](O)[C@H]2O)[C@@H](O)[C@H](OC[C@H]2O[C@@H](Oc3c(-c4ccc(O)c(O)c4)oc4cc(O)cc(O)c4c3=O)[C@H](O)[C@@H](O)[C@H]2O)O[C@H]1C | inactive: 0.986
23 | C[C@H]1CN([C@@H](C)CO)C(=O)Cc2cc(NC(=O)CCN3CCOCC3)ccc2O[C@H]1CN(C)C(=O)NC1CCCCC1 | inactive: 1.04
24 | CNC(=O)C[C@@H]1CC[C@H]2[C@@H](COC[C@H](O)CN2C(=O)Nc2cccc(OC)c2)O1 | inactive: 0.983
25 | C[C@@H]1CN([C@@H](C)CO)C(=O)Cc2cc(NS(=O)(=O)c3cn(C)cn3)ccc2O[C@@H]1CN(C)S(=O)(=O)c1ccccc1 | inactive: 1
26 | C[C@H](CO)N1C[C@H](C)[C@@H](CN(C)Cc2ccccc2)OCCCC[C@H](C)Oc2ccc(NC(=O)Nc3ccc4c(c3)OCO4)cc2C1=O | inactive: 0.988
27 | O=C(C[C@@H]1CC[C@H]2[C@@H](COC[C@H](O)CN2Cc2ccccc2F)O1)N[C@@H]1CCN(Cc2ccccc2)C1 | inactive: 0.999
28 | C[C@@H]1CCCCO[C@@H](CN(C)C(=O)CCC(F)(F)F)[C@@H](C)CN([C@@H](C)CO)C(=O)c2cc(NC(=O)Nc3ccccc3)ccc2O1 | inactive: 1
29 | Cc1ccc(S(=O)(=O)Nc2ccc3c(c2)CC(=O)N([C@H](C)CO)C[C@H](C)[C@H](CN(C)C(=O)Nc2cccc4ccccc24)O3)cc1 | inactive: 1
30 | CCOC(=O)C[C@@H](N)c1cccc(O)c1 | inactive: 0.999
31 | C[C@H](CO)N1C[C@H](C)[C@@H](CN(C)C(=O)C2CCCCC2)OCCCC[C@H](C)Oc2ccc(NS(=O)(=O)c3cccs3)cc2C1=O | inactive: 1
32 | C[C@@H]1CN([C@H](C)CO)C(=O)c2cc(NC(=O)Nc3ccc4c(c3)OCO4)ccc2O[C@H]1CN(C)Cc1ccc(-c2ccccc2)cc1 | inactive: 1.04
33 | CCOC(=O)Nc1ccc(NCc2ccc(F)cc2)nc1N.O=C(O)C=CC(=O)O | inactive: 0.989
34 | C[C@@H]1CCCCO[C@@H](CN(C)C(=O)Nc2ccc(F)cc2)[C@@H](C)CN([C@H](C)CO)C(=O)c2cc(NS(=O)(=O)c3ccc(F)cc3)ccc2O1 | inactive: 0.985
35 | C[C@H]1CN([C@@H](C)CO)C(=O)c2cccc(NC(=O)c3ccc(-c4nccs4)cc3)c2O[C@@H]1CN(C)Cc1ccc(Oc2ccccc2)cc1 | inactive: 1.05
36 | C[C@@H]1CN([C@H](C)CO)C(=O)c2cc(NS(=O)(=O)c3cn(C)cn3)ccc2O[C@H]1CN(C)S(=O)(=O)c1ccccc1 | inactive: 1

From the supplement of paper PMC9446081
